Source: publication PMC10419456, “Interaction of L1CAM with LC3 Is Required for L1-Dependent Neurite Outgrowth and Neuronal Survival” (International Journal of Molecular Sciences, 2023)

Target: Recombinant human LC3B (human, UniProt Q9GZQ8)
Assay: ELISA; recombinant LC3B substrate-coated (25 µL of 10 µg/mL, 384-well plate, overnight 4 °C); increasing concentrations of L1-ICD, CHL1-ICD, L1/Fc or CHL1/Fc for 1 h at room temperature; PBS with MgCl2 and CaCl2, washes with PBST; detected with L1 antibody C-2, CHL1 antibody C-18 or HRP-coupled anti-Fc antibody
Conditions: both partners purified

B1: L1/Fc, fusion protein of the extracellular domains of L1 and Fc from human IgG (Fc fusion)
chain: not shown
notes: neural cell adhesion molecule L1, mouse, extracellular domains, […]; source: recombinant, production and purification as described [69]
B1: binds.
